Numbering of substitutions follows the chain as printed. Where two headings read alike, the source gives them in different places.
T1: TIGIT (T cell immunoreceptor with Ig and ITIM domains) (UniProt Q495A1 22-141, limits assumed)
T1 sequence (looked up): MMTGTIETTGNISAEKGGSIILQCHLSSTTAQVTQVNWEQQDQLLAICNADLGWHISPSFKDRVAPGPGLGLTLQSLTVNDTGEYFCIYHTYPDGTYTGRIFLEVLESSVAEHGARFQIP

T2: TIGIT (UniProt Q495A1 22-141, limits assumed)
T2 construct: also called T cell immunoreceptor with Ig and ITIM domains; hTIGIT
T2 sequence (looked up): T1 sequence (looked up)

B1: TIGIT-30-43 (Fc fusion)
chain: EVQLVESGGGLVQAGGSLRLSCAASGFTFSTSWMGWFRQAPGKERELVAARNSGGNTNYADSVKGRFTISADNAKNTVYLQMNSLKPEDTAVYYCAADVWYGSTWRNWGQGTQVTVSSGGGGS[in this place human IgG1 Fc with C220S (EU numbers)]
notes: VHH-Fc
B2: TIGIT-31-01 (Fc fusion)
chain: EVQLVESGGGLVQPGGSLRLSCAASGFTFDRSWMGWFRQAPGKEREVVASITSGGSTYYADSVKGRFTISADNSKNTAYLQMNSLKPEDTAVYYCAADVWYGSTWRNWGQGTLVTVSSGGGGS[in this place human IgG1 Fc with C220S (EU numbers)]
notes: VHH-Fc; also called 31-1; TIGIT-31-1
B3: TIGIT-31-06 (Fc fusion)
chain: B2 chain with D30S, R31T, V47L
notes: VHH-Fc; also called 31-6; TIGIT-31-6
B4: TIGIT-31-08 (Fc fusion)
chain: B1 chain with A14P, A74S, V78A, Q113L
notes: VHH-Fc; also called 31-8; TIGIT-31-8
B5: TIGIT-31-26 (Fc fusion)
chain: B2 chain with V47L, S50A
notes: VHH-Fc
B6: TIGIT-31-32 (Fc fusion)
chain: B1 chain with A14P, R51M, N52T, N56G, A74S, V78A, Q113L
notes: VHH-Fc
B7: TIGIT-29-10 (Fc fusion)
chain: EVQLVESGGGLVQAGGSLRLSCAASGRTFSNYGMGWFRQAPGKEREFVSGISGSGGRTSYADSVKGRFTISADNAKNTVYLQMNSLKPEDTAVYYCAANLWYPVDRLNTGFNYWGQGTQVTVSSGGGGS[in this place human IgG1 Fc with C220S (EU numbers)]
notes: VHH-Fc
B8: TIGIT-29-07 (Fc fusion)
chain: EVQLVESGGGLVQAGGSLRLSCAASGSIFSNYAMGWFRQAPGKEREFVATISRGGTRTNYADSVKGRFTISADNAKNTVYLQMNSLKPEDTAVYYCAAAAWTIYAYNYWGQGTQVTVSSGGGGS[in this place human IgG1 Fc with C220S (EU numbers)]
notes: VHH-Fc; also called 29-7; TIGIT-29-7
B9: TIGIT-30-30 (Fc fusion)
chain: EVQLVESGGGLVQAGGSLRLSCAASGGTFSGRGMGWFRQAPGKEREWVSSVYIFGGSTYYADSVKGRFTISADNAKNTVYLQMNSLKPEDTAVYYCANSNKPKFDWGQGTQVTVSSGGGGS[in this place human IgG1 Fc with C220S (EU numbers)]
notes: VHH-Fc
B10: TIGIT-31-56 (Fc fusion)
chain: EVQLVESGGGLVQPGGSLRLSCAASGRIFRRNSMGWFRQAPGKEREFVAVITRSGGGEVTTYADSVKGRFTINADNSKNTAYLQMNSLKPEDTAVYYCAMSSVTRGSSDWGQGTLVTVSTGGGGS[in this place human IgG1 Fc with C220S (EU numbers)]
notes: VHH-Fc
B11: TIGIT-29-06 (Fc fusion)
chain: EVQLVESGGGLVQAGGSLRLSCAASGGTFRSYVMGWFRQAPGKEREWVATINSSGSRTYYADSVKGRFTISADNAKNTVYLQMNSLKPEDTAVYYCAARPNYRDYEYWGQGTQVTVSSGGGGS[in this place human IgG1 Fc with C220S (EU numbers)]
notes: VHH-Fc; also called 29-6
B12: TIGIT-31-34 (Fc fusion)
chain: EVQLVESGGGLVQPGGSLRLSCAASGRSRYGMGWFRQAPGKEREFVSAISWSGISTYYADSVKGRFTISADNSKNTAYLQMNSLKPEDTAVYYCAATQWGSSGWKQARWYDWGQGTLVTVSSGGGGS[in this place human IgG1 Fc with C220S (EU numbers)]
notes: VHH-Fc
B13: TIGIT-30-57 (Fc fusion)
chain: EVQLVESGGGLVQAGGSLRLSCAASGPTFSIYDMGWFRQAPGKEREFVAAITWNSGRIGYADSVKGRFTISADNAKNTVYLQMNSLKPEDTAVYYCAAGVWSSLRHTAANWGQGTQVTVSSGGGGS[in this place human IgG1 Fc with C220S (EU numbers)]
notes: VHH-Fc
B14: TIGIT-30-14 (Fc fusion)
chain: B13 chain with I58T, G59N, V100A, H106K, N110S
notes: VHH-Fc
B15: TIGIT-30-20 (Fc fusion)
chain: B13 chain with A50V, T52N, N54S, S55R, R57S, I58T, G59F
notes: VHH-Fc
B16: TIGIT-31-24 (Fc fusion)
chain: EVQLVESGGGLVQPGGSLRLSCAASGRTFSMGWFRQAPGKEREFVATVRWGTSSTYYADSVKGRFTISADNSKNTAYLQMNSLKPEDTAVYYCAAETFGSGSSLMSEYDWGQGTLVTVSSGGGGS[in this place human IgG1 Fc with C220S (EU numbers)]
notes: VHH-Fc
B17: TIGIT-31-06 (VHH-Fc) (Fc fusion)
chain: B2 chain with D30S, R31T, V47L
notes: also called TIGIT-31-6; 31-6
B18: TIGIT-31-08 (VHH-Fc) (Fc fusion)
chain: B1 chain with A14P, A74S, V78A, Q113L
notes: also called TIGIT-31-8; 31-8
B19: TIGIT-31-26 (VHH-Fc) (Fc fusion)
chain: B2 chain with V47L, S50A
B20: TIGIT-31-32 (VHH-Fc) (Fc fusion)
chain: B1 chain with A14P, R51M, N52T, N56G, A74S, V78A, Q113L
B21: TIGIT-30-9 (Fc fusion)
chain: EVQLVESGGGLVQAGGSLRLSCAASGPISGINRMGWFRQAPGKEREWVSTITFNGDHTYYADSVKGRFTISADNAKNTVYLQMNSLKPEDTAVYYCAARPYTRPGSMWVSSLYDWGQGTQVTVSSGGGGS[in this place human IgG1 Fc with C220S (EU numbers)]
notes: VHH-Fc
B22: TIGIT-29-27 (Fc fusion)
chain: EVQLVESGGGLVQAGGSLRLSCAASGRTFSNNVMGWFRQAPGKEREFVAAISWGGASTNYADSVKGRFTISADNAKNTVYLQMNSLKPEDTAVYYCAAGPKTPDTRNYWGQGTQVTVSSGGGGS[in this place human IgG1 Fc with C220S (EU numbers)]
notes: VHH-Fc
B23: TIGIT-29-20 (Fc fusion)
chain: EVQLVESGGGLVQAGGSLRLSCAASGSTFSIYAMGWFRQAPGKERELVASISWSGDTTNYADSVKGRFTISADNAKNTVYLQMNSLKPEDTAVYYCAAGSVYGRNSWGQGTQVTVTSGGGGS[in this place human IgG1 Fc with C220S (EU numbers)]
notes: VHH-Fc
B24: TIGIT-30-55 (Fc fusion)
chain: EVQLVESGGGLVQAGGSLRLSCAASGNTFSGGFMGWFRQAPGKEREWVASVLRGGYTWYADSVKGRFTISADNAKNTVYLQMNSLKPEDTAVYYCATGWQSTTKSQGWGQGTQVTVSSGGGGS[in this place human IgG1 Fc with C220S (EU numbers)]
notes: VHH-Fc
B25: TIGIT-31-30 (Fc fusion)
chain: EVQLVESGGGLVQPGGSLRLSCAASGRTYNMGWFRQAPGKEREWVATIYSRSGGSTTYYADSVKGRFTISADNSKNTAYLQMNSLKPEDTAVYYCATYGYDSGRYYSWGQGTLVTVSSGGGGS[in this place human IgG1 Fc with C220S (EU numbers)]
B26: TIGIT-29-31 (Fc fusion)
chain: EVQLVESGGGLVQAGGSLRLSCAASGFTFSIYAMGWFRQAPGKEREWVSTISWSGGNTYYADSVKGRFTISADNAKNTVYLQMNSLKPEDTAVYYCATRPRFRRYDSWGQGTQVTVSSGGGGS[in this place human IgG1 Fc with C220S (EU numbers)]
notes: VHH-Fc

What was measured:
[1] = molecular target: T1, TIGIT (T cell immunoreceptor with Ig …); assay: SPR (Carterra), VHH-Fc
From the text: (§1) The Carterra SPR system was used to assess binding affinity and affinity distribution for VHH-Fc variants. […] Table 5A provides specific values for the VHH-Fc clones for ELISA, Protein A (mg/ml), and KD (nM). FIG. 7A and FIG. 7B depict TIGIT affinity distribution for the VHH libraries, over the 20-4000 affinity threshold (FIG. 7A; monovalent KD) and the 20-1000 affinity threshold (FIG. 7B; monovalent KD).

[2] = molecular target: T1, TIGIT (T cell immunoreceptor with Ig …); assay: SPR (Carterra), VHH-Fc; remark: listed apart in the source
From the text: as §1

[3] = molecular target: T1, TIGIT (T cell immunoreceptor with Ig …); assay: competition ELISA: immobilised TIGIT, VHH-Fc 0.05-100 nM, then biotin-CD155, streptavidin-HRP
Experimental: Thermostability and competition analysis of the VHH-Fc TIGIT clones is seen in FIG. 9 and Table 6. For the competition assays, 4 μg/mL TIGIT was immobilized and incubated with 0.05-100 nM VHH-Fc followed by incubation with 2 μg/mL biotin-CD155 and 1:5000 streptavidin-HRP.

TIGIT [4] = molecular target: T2, TIGIT; assay: ELISA
TIGIT [5] = molecular target: T2, TIGIT; assay: SPR (Carterra), VHH-Fc
TIGIT [6] = molecular target: T2, TIGIT; assay: TIGIT:CD155 blockade assay, competitor CD155

Binder | Kd [1] [nM] | Kd [2] [nM] | IC50 [3] [nM] | other results
B1 | 44 | 44 | 2.32 | –
B2 | 12 | 12 | 17.9 | –
B3 | 14 | 14 | 4 | –
B4 | 45 | 45 | 3.92 | –
B5 | 19 | 19 | 8.2 | –
B6 | 27 | 27 | 2.85 | –
B7 | 32 | – | 17.6 | –
B8 | 41 | 41 | 9.24 | –
B9 | 23 | 23 | 5.67 | –
B10 | 46 | 46 | 1.52 | –
B11 | 69 | – | – | –
B12 | 70 | – | – | –
B13 | 95 | – | – | –
B14 | 75 | – | – | –
B15 | 74 | – | – | –
B16 | 75 | – | – | –
B17 | – | – | – | ELISA (TIGIT [4]): 9.6; Kd (TIGIT [5]): 14 nM; koff (TIGIT [5]): 0.0035 s⁻¹; kon (TIGIT [5]): 240000 M⁻¹ s⁻¹; IC50 (TIGIT [6]): 4 nM
B18 | – | – | – | ELISA (TIGIT [4]): 12.7; Kd (TIGIT [5]): 45 nM; koff (TIGIT [5]): 0.017 s⁻¹; kon (TIGIT [5]): 380000 M⁻¹ s⁻¹; IC50 (TIGIT [6]): 3.9 nM
B19 | – | – | – | ELISA (TIGIT [4]): 5.1; Kd (TIGIT [5]): 19 nM; koff (TIGIT [5]): 0.0036 s⁻¹; kon (TIGIT [5]): 190000 M⁻¹ s⁻¹; IC50 (TIGIT [6]): 8.2 nM
B20 | – | – | – | ELISA (TIGIT [4]): 8; Kd (TIGIT [5]): 27 nM; koff (TIGIT [5]): 0.015 s⁻¹; kon (TIGIT [5]): 560000 M⁻¹ s⁻¹; IC50 (TIGIT [6]): 2.9 nM
B21 | 79 | – | – | –
B22 | 82 | – | – | –
B23 | 83 | – | – | –
B24 | 85 | – | – | –
B25 | 93 | – | – | –
B26 | 96 | – | – | –
